Experimental data from PubChem BioAssay AID1832 (Broad Institute, 2009).
About 1,100 (0.37%) of roughly 300,000 compounds were called active. Inconclusive means that the source gave no clear call. Such entries were picked first, then a sample of the others.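 How the source made its calls: active means inhibition past about -25% in most replicates, and total fluorescence under double the plate's negative control median (limit read from the data); inconclusive means replicates evenly split on the limit, or fluorescence at least double controls; inactive means too little inhibition in most replicates.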

The compounds below were run against Zinc finger protein mex-5 (Caenorhabditis elegans) (UniProt Q9XUB2) (assay: MEX-5 zinc finger RNA-binding disruptors – biochemical, C. elegans, fluorescence polarization, MLPCN library, primary screen (AID 1832;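 further: 0% = DMSO and -100% = 5 µM competing unlabeled TCR2 RNA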)). Details: MEX-5/FITC-TCR2 RNA binding, at 10 µM, active compounds read low.
UniProt Q9XUB2, sequence (Q9XUB2 whole entry, looked up): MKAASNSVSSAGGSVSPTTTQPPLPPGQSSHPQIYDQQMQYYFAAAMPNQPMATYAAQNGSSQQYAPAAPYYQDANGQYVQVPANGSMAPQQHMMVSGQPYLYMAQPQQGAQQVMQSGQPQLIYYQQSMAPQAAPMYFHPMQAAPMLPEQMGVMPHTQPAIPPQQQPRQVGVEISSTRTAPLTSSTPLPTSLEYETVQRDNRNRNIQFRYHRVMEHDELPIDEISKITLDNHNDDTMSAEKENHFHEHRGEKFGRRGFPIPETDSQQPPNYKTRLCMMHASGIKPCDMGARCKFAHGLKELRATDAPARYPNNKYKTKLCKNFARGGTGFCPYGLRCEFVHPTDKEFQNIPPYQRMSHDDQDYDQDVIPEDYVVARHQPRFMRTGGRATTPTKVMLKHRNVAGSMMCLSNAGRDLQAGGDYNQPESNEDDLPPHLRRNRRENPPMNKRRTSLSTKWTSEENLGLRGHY
For `CCNc1ccc2noc3c2c1C(=O)c1ccccc1-3`, the activity score (negative = inhibition of binding) was inconclusive: -84% [fluorescent]. With `Cc1cc(C(=O)N/N=C/c2cccc([N+](=O)[O-])c2O)n[nH]1` the activity score (negative = inhibition of binding) was inconclusive: -22.4%. For `CNc1ncc(C(=O)c2ccc(-c3ccccc3)cc2)s1`, the activity score (negative = inhibition of binding) was inactive: -0.657%. For `O=C(CSc1ncn[nH]1)Nc1c(Br)cc([N+](=O)[O-])cc1Br`, the activity score (negative = inhibition of binding) was inconclusive: -20.9%. For `Cc1nc2c3ccccc3nc(NNC(=O)CCC(=O)N3CCCC(C)C3)n2n1` (configuration not stated), the activity score (negative = inhibition of binding) was active: -27%. `CC(C)(C)c1ccc(C(=O)Nc2cccc3ncccc23)cc1` was tested, and the activity score (negative = inhibition of binding) was active: -74.1%. With `O=C(c1ccco1)N1CCN(c2ncnc3c(-c4ccc(Cl)cc4)nsc23)CC1` the activity score (negative = inhibition of binding) was active: -29.2%. With `O=C(O)CCC(=O)NCc1ccc2[nH]c3c(c2c1)CCCC3` the activity score (negative = inhibition of binding) was inconclusive: -23.8%. `COC(=O)c1cc(NC(=O)c2cccc(Cl)c2)c(=O)oc1/C=C/Nc1cc(C)cc(C)c1` was tested, and the activity score (negative = inhibition of binding) was active: -28.3%. For `CCc1nnc(NC(=O)CCC(=O)NCCc2ccccc2)s1`, the activity score (negative = inhibition of binding) was inactive: -4.93%. With `Nc1ccc(Nc2ccccc2)c(S(=O)(=O)O)c1` the activity score (negative = inhibition of binding) was inconclusive: -22.8%. `CCOc1c(C=C(C#N)C#N)c2ccccc2n1CC` was tested, and the activity score (negative = inhibition of binding) was active: -38.7%. `Cc1nc(N2CCN(c3ccccn3)CC2)c2c(C)c(C(=O)N3CCN(c4ccccc4F)CC3)sc2n1` was tested, and the activity score (negative = inhibition of binding) was inactive: 0.746%. In the case of `Cc1ccc2cc(/C=C(\C#N)C(N)=O)c(N3CCCCC3)nc2c1`, the activity score (negative = inhibition of binding) is reported as inconclusive: -25%. With `CCn1c(-c2cccnc2)n[nH]c1=S` the activity score (negative = inhibition of binding) was inactive: -0.267%. With `O=C(CSc1nc(-c2cccs2)cc(C(F)(F)F)n1)Nc1cc(OCC(F)(F)C(F)F)cc([N+](=O)[O-])c1` the activity score (negative = inhibition of binding) was inactive: -1.96%. In the case of `CN(C)c1ccnc(Oc2ccc(Cl)cc2)c1C#N`, the activity score (negative = inhibition of binding) is reported as inconclusive: -21.1%. With `CCN1CCC(NC(=O)Nc2ccccc2C(=O)OC)CC1` the activity score (negative = inhibition of binding) was inactive: -0.411%. With `CCC1(C(=O)OC)NC(c2cccc(F)c2)C2C(=O)N(C)C(=O)C21` (configuration not stated) the activity score (negative = inhibition of binding) was inactive: 2.18%. `CCOC1(OCC)N=C(N)C2(C#N)C(c3ccc(NC(C)=O)cc3)C12C#N` (configuration not stated) was tested, and the activity score (negative = inhibition of binding) was active: -27.3%. For `O=[n+]1c2c(n([O-])c3cc(F)c(N4CCCC4)cc31)CCCC2`, the activity score (negative = inhibition of binding) was inconclusive: -56.8% [fluorescent]. In the case of `CC(C)CNC(=O)CN1C(=O)NC2(CCc3ccccc32)C1=O` (configuration not stated), the activity score (negative = inhibition of binding) is reported as inactive: -2.81%. With `Oc1[nH]c2ccc(Br)cc2c1N=Nc1nn[nH]n1` the activity score (negative = inhibition of binding) was active: -74.2%. In the case of `CCOc1cc(/C=C2\C(=N)N3N=C(S(C)(=O)=O)SC3=NC2=O)ccc1OCCOc1cccc(OC)c1`, the activity score (negative = inhibition of binding) is reported as inconclusive: -16%. For `CCOc1ccc2nc3cc(NCc4ccc(OC)cc4)ccc3c(N)c2c1`, the activity score (negative = inhibition of binding) was active: -33%. For `O=C(CN1C(=O)/C(=C\C=C\c2ccccc2)SC1=S)Nc1ccc(F)cc1`, the activity score (negative = inhibition of binding) was inconclusive: -25%. With `NS(=O)(=O)c1ccc(-c2ccc(/C=C3\NC(=S)NC3=O)o2)cc1` the activity score (negative = inhibition of binding) was active: -64.9%. In the case of `Cc1ccccc1C1=N/C(=C/c2cccs2)C(=O)O1`, the activity score (negative = inhibition of binding) is reported as active: -27.5%. `Cc1c(CN2CCCCC2)c(O)n(CCCO)c(=O)c1C#N` was tested, and the activity score (negative = inhibition of binding) was active: -45.7%. With `C#CCN1c2ccccc2Sc2cccnc21` the activity score (negative = inhibition of binding) was inactive: -10.6%. With `COCCCNC(=O)c1ccc2c3c(onc13)-c1ccccc1C2=O` the activity score (negative = inhibition of binding) was active: -78.9%. For `CCCCN(CCCC)c1nc2ccccc2nc1C(C#N)C(=O)NCCCOC` (configuration not stated), the activity score (negative = inhibition of binding) was inconclusive: 77.2% [fluorescent]. `CCOc1ccc(/C=N/N2C(C)CCCC2C)cc1` (configuration not stated) was tested, and the activity score (negative = inhibition of binding) was inactive: 0.867%. `Cc1ccc(N=Nc2c(O)[nH]c3ccc(F)cc23)cc1` was tested, and the activity score (negative = inhibition of binding) was inconclusive: -23.6%. `c1ccc(-c2nnc(-c3ccccn3)nn2)nc1` was tested, and the activity score (negative = inhibition of binding) was active: -41.6%. With `CCCCNC(=S)NNC(=O)c1cc(C)on1` the activity score (negative = inhibition of binding) was inconclusive: -22.4%. `COc1ccc(C(=O)Nc2ccc(Cl)cc2C(=O)N2CCCC(C)C2)cc1` (configuration not stated) was tested, and the activity score (negative = inhibition of binding) was inactive: -1.65%. For `Cc1ccc2nc(SCC3CCCCO3)[nH]c2c1` (configuration not stated), the activity score (negative = inhibition of binding) was inactive: 2.75%. In the case of `O=c1[nH]c(=S)[nH]c2[nH]c(=S)[nH]c12`, the activity score (negative = inhibition of binding) is reported as inconclusive: -25.3%. For `COc1cc(C(=O)NCCCNc2nc3cc(C)cc(C)c3cc2C#N)cc(OC)c1OC`, the activity score (negative = inhibition of binding) was inactive: 1.03%. For `NS(=O)(=O)c1cc(C(=O)NC2CCSc3ccccc32)ccc1Cl` (configuration not stated), the activity score (negative = inhibition of binding) was inconclusive: -25.4%. For `CC(=O)Oc1ccc2c(c1)O/C(=C\c1ccncc1)C2=O`, the activity score (negative = inhibition of binding) was inconclusive: -68.3% [fluorescent]. In the case of `COC(=O)c1[nH]c2cc(OC)c(OC)cc2c1/C=N/Nc1ccccc1`, the activity score (negative = inhibition of binding) is reported as inconclusive: -20.3%. For `COc1cc(C2NC(=S)NC(C)=C2C(=O)OC(C)C)ccc1OC(C)C` (configuration not stated), the activity score (negative = inhibition of binding) was inconclusive: -16.7%. `CCOC(=O)C1=C(C)N=c2s/c(=C/c3ccc(OCC(=O)O)cc3)c(=O)n2C1c1ccc(OC)cc1OC` (configuration not stated) was tested, and the activity score (negative = inhibition of binding) was inconclusive: -18.1%. `CC(C)N1CCc2c(sc(NC(=O)c3ccc(S(=O)(=O)N(C)CC4CCCO4)cc3)c2C(N)=O)C1` (configuration not stated) was tested, and the activity score (negative = inhibition of binding) was inconclusive: -17.9%. With `CN(CC(=O)NCc1ccccc1F)S(=O)(=O)c1ccc(Cl)cc1` the activity score (negative = inhibition of binding) was inactive: -0.421%. For `COc1ccc(-n2c(C)cc(C(=O)CN3C(=O)NC4(CCc5ccccc54)C3=O)c2C)cc1` (configuration not stated), the activity score (negative = inhibition of binding) was inconclusive: -14%. With `NC(N)=NS(=O)(=O)c1ccc(NC(=S)NC(=O)/C=C/c2cccs2)cc1` the activity score (negative = inhibition of binding) was inconclusive: -20.1%. With `CCN(CC)C(=O)Cn1cc(C(=O)C(=O)N2CCc3ccccc32)c2ccccc21` the activity score (negative = inhibition of binding) was inconclusive: -23.7%. For `CCc1cc[n+](-c2nc([O-])sc2C=O)cc1`, the activity score (negative = inhibition of binding) was active: -50.2%. With `Cc1ccc(CN(C)C(=O)CC2C(=O)NCCN2CC2CCCCC2)cc1` (configuration not stated) the activity score (negative = inhibition of binding) was active: -47.6%. `CCc1cc[n+](-c2nc3ccccc3nc2[N-]S(=O)(=O)c2ccc(Br)s2)cc1` was tested, and the activity score (negative = inhibition of binding) was inconclusive: -21.4%. For `COc1ccc(CNC(=O)C(C#N)c2nc3ccccc3nc2N2CCCC2)cc1` (configuration not stated), the activity score (negative = inhibition of binding) was inconclusive: -148% [fluorescent]. For `CCN1/C(=C/c2ccc3cccc(C)c3[n+]2CC)Sc2ccccc21`, the activity score (negative = inhibition of binding) was inconclusive: 45.3% [fluorescent]. In the case of `CC1CCc2nn(CC(=O)NCCN3CCCCC3C)cc2C1` (configuration not stated), the activity score (negative = inhibition of binding) is reported as active: -35%. `CCO/C(C)=N/n1c2nc3ccccc3nc2c2c(=O)n(C3CCCC3)c(C)nc21` was tested, and the activity score (negative = inhibition of binding) was inconclusive: -12.1%. For `CCOc1cc(C=C(C#N)C#N)ccc1Oc1ccc([N+](=O)[O-])cn1`, the activity score (negative = inhibition of binding) was inactive: -0.348%. With `CCOc1cc(/C=C2/C(=O)ON=C2C)ccc1OCc1ccccc1F` the activity score (negative = inhibition of binding) was inconclusive: 0.211%. `CN(C)c1ccc(/C=C/c2nc3ccccc3c(=O)n2-c2ccc(C(=O)O)cc2)cc1` was tested, and the activity score (negative = inhibition of binding) was inconclusive: 53.5% [fluorescent]. In the case of `COc1ccccc1NC(=O)CSc1ccc(-c2ccc(-n3ccnc3)cc2)nn1`, the activity score (negative = inhibition of binding) is reported as inactive: 1.38%. With `CC1=N/C(=C/c2ccco2)C(=O)O1` the activity score (negative = inhibition of binding) was inconclusive: -22.7%. With `CCOC(=O)c1nn(-c2ccc(C)cc2)c2nc(Nc3ccccc3)cc(=O)n12` the activity score (negative = inhibition of binding) was inconclusive: -18.4%. In the case of `Cc1ccc(Oc2nc(-c3ccccn3)nc3ccccc23)cc1`, the activity score (negative = inhibition of binding) is reported as inconclusive: -21.2%. For `CC(=O)N1CCCc2ccc(NS(=O)(=O)c3ccccc3)cc21`, the activity score (negative = inhibition of binding) was inactive: -0.764%. For `CCOc1ccc2nc3sc(C(=O)N4CCOCC4)c(N)c3cc2c1`, the activity score (negative = inhibition of binding) was inconclusive: 14.5% [fluorescent]. In the case of `NS(=O)(=O)c1ccc(NC(=S)NNC(=O)CCC(=O)Nc2ccccc2Cl)cc1`, the activity score (negative = inhibition of binding) is reported as active: -30.7%. In the case of `O=Cc1c(-c2ccccc2)nc2ccccn12`, the activity score (negative = inhibition of binding) is reported as inconclusive: -18.5%. `O=C(CNC(=O)c1ccc(Cl)cc1Cl)OCN1C(=O)c2ccccc2C1=O` was tested, and the activity score (negative = inhibition of binding) was inactive: 4.38%. For `COc1cccc(CNC23CC4CC(CC(C4)C2)C3)c1OCc1ccccc1`, the activity score (negative = inhibition of binding) was inconclusive: -18.6%. `O=C(OCCN1C(=O)c2cccc3c(N4CCOCC4)ccc(c23)C1=O)c1ccc(Cl)cc1Cl` was tested, and the activity score (negative = inhibition of binding) was inconclusive: -80.2% [fluorescent]. With `CC1(C)CC(=O)C2=C(C1)Nc1ccccc1S2` the activity score (negative = inhibition of binding) was inconclusive: -24.1%. For `CCN(CC)S(=O)(=O)c1ccc(C(=O)OCCN2C(=O)c3cccc4c(N5CCOCC5)ccc(c34)C2=O)cc1`, the activity score (negative = inhibition of binding) was inconclusive: -120% [fluorescent]. With `COC(=O)C1=C(C)N(c2ccc(C)c(C)c2)/C(=C/c2cccs2)C1=O` the activity score (negative = inhibition of binding) was inconclusive: -18.5% [fluorescent]. In the case of `COc1ccccc1NC(=S)N1CCN(C(=O)c2ccco2)CC1`, the activity score (negative = inhibition of binding) is reported as inactive: -1.14%. In the case of `Cc1nc2sc(-c3ccccc3)cc2c(=O)n1-n1cccc1`, the activity score (negative = inhibition of binding) is reported as inactive: -0.501%. `O=C(NN1C(=O)/C(=C/c2ccc(O)cc2)SC1=S)c1cccc(O)c1` was tested, and the activity score (negative = inhibition of binding) was inconclusive: 90.8% [fluorescent]. `Cc1cc2nc3s/c(=C/c4ccc(-c5ccccc5C(=O)O)o4)c(=O)n3c2cc1C` was tested, and the activity score (negative = inhibition of binding) was inactive: -6.2%. With `O=C(CCc1ccc(O)c(O)c1)N/N=C/c1cc2c(cc1[N+](=O)[O-])OCO2` the activity score (negative = inhibition of binding) was inconclusive: -22.3%. With `Cc1ccc(S(=O)(=O)N(CCCN2CCCC2=O)Cc2cc3c(C)ccc(C)c3[nH]c2=O)cc1` the activity score (negative = inhibition of binding) was inconclusive: -14.5%. In the case of `N#CC1=C(N)Oc2ccc3ccc(O)cc3c2C1c1ccsc1` (configuration not stated), the activity score (negative = inhibition of binding) is reported as active: -46.9%. With `O=C(C[n+]1cc[nH]c1)c1ccc(Cl)cc1` the activity score (negative = inhibition of binding) was inactive: 2.67%. For `O=C(Nc1nc(=O)c2ccccc2s1)c1ccc(Cl)cc1`, the activity score (negative = inhibition of binding) was inactive: 1.22%. In the case of `Cn1c(=O)c2[nH]c(N/N=C(/C#N)C(N)=O)nc2n(C)c1=O`, the activity score (negative = inhibition of binding) is reported as active: -27.4%. With `CCN(CC)c1cccc(OC(=O)c2cccnc2Cl)c1` the activity score (negative = inhibition of binding) was inactive: -2.32%. For `COc1ccc(C2=C(c3ccc([N+](=O)[O-])cc3)C(=O)OC2)cc1`, the activity score (negative = inhibition of binding) was inconclusive: -79.8% [fluorescent]. With `CSCC(C)N1CCC(N2CCC(C(=O)NCc3ccccn3)CC2)CC1` (configuration not stated) the activity score (negative = inhibition of binding) was inconclusive: -25.3%.
